{
  "source": "PubChem BioAssay AID463173",
  "about": "(ICCB-Longwood Screening Facility, Harvard Medical School, 2010)",
  "note": "About 1,700 (3.3%) of roughly 52,000 compounds were called active. Rule as the data show it: active = survival mostly below about 52% (no sharp cut-off); inactive = mostly above about 56%. This is one part of the list.",
  "data": [
    {"system": "Wild type", "experiment": "growth inhibition of S. aureus wild type versus tarO mutant, primary screen, teichoic acid synthesis inhibitors, RN4220, OD600 (AID 463173)", "conditions": "S. aureus RN4220 wild type/DeltatarO growth, OD600, 18 h, hits give low values, screened at 18.75 µg/mL (by protocol)", "values": [
      {"smiles": "Cc1cccc(N2CCN(S(=O)(=O)c3ccc4c(c3)CCCN4C(=O)C3CCC3)CC2C)c1", "note": "(centres undefined)", "survival": "inactive: 73%"},
      {"smiles": "CCOc1ccc(NC(=O)CN2C(=O)C(c3ccccc3)=NC23CCC(C)CC3)cc1", "note": "(centres undefined)", "survival": "inactive: 83%"},
      {"smiles": "COc1cc2c(=O)c(S(=O)(=O)c3ccc(F)cc3)cn(Cc3ccc(Cl)cc3)c2cc1OC", "survival": "inactive: 81%"},
      {"smiles": "CCOC(=O)c1ccc(CN(Cc2ccc(F)cc2)S(=O)(=O)c2cc(C(=O)Nc3cccc(C(F)(F)F)c3)ccc2F)cc1", "survival": "inactive: 93%"},
      {"smiles": "CCCN1C(C(=O)c2ccccc2)=C(OC(=O)COc2ccccc2)c2ccccc2S1(=O)=O", "survival": "inactive: 72%"},
      {"smiles": "O=C(NC1CCCCCC1)c1ccc2c(c1)sc1nc(-c3ccc(F)cc3)cn12", "survival": "inactive: 114%"},
      {"smiles": "COc1ccc(Cn2c(=O)[nH]c3cc(C(=O)N4CCN(c5cccc(Cl)c5)CC4)ccc3c2=O)cc1", "survival": "inactive: 63%"},
      {"smiles": "Cn1c(=O)n(-c2ccc(Br)cc2F)c(=O)c2sc3ccccc3c21", "survival": "inactive: 94%"},
      {"smiles": "Cc1cc(NC(=O)CN2CCCCC2)no1", "survival": "inactive: 100%"},
      {"smiles": "CC(=O)c1ccc(NC(=O)c2noc3c2CCc2ccccc2-3)cc1", "survival": "inactive: 88%"},
      {"smiles": "N#CC1=C(N)OC2=C(C(=O)CCC2)C1c1c(F)cccc1Cl", "note": "(centres undefined)", "survival": "inactive: 113%"},
      {"smiles": "O=C(Nc1ccc(C(=O)OCc2cc(=O)n3c4c(sc3n2)CCCC4)cc1)c1ccccc1", "survival": "inactive: 19%"},
      {"smiles": "COc1ccc(C2C(C(N)=O)=C(C)Nc3nc(CCCO)nn32)c(OC)c1", "note": "(centres undefined)", "survival": "inactive: 62%"},
      {"smiles": "CCCS(=O)(=O)c1c(S(=O)(=O)CCC)c2cc(CC)ccn2c1C(=O)c1ccc(OC)cc1", "survival": "inactive: 93%"},
      {"smiles": "COc1ccc(CCNC(=O)c2cnc3ccc(C)cn3c2=O)cc1", "survival": "inactive: 86%"},
      {"smiles": "CCOc1ccc(NC(=O)N2CCC(C(N)=O)(N3CCCCC3)CC2)cc1", "survival": "inactive: 112%"},
      {"smiles": "CC(C)CS(=O)(=O)c1oc(-c2ccc(F)cc2)nc1S(=O)(=O)c1ccccc1", "survival": "active: 3%"},
      {"smiles": "COc1cccc(Cn2nnc(C(=O)Nc3cc(C)ccc3C)c2N)c1", "survival": "inactive: 102%"},
      {"smiles": "O=C(Cn1c(=O)n(Cc2ccccc2)c(=O)c2sc3ccccc3c21)NCc1ccccc1Cl", "survival": "inactive: 125%"},
      {"smiles": "O=C(CCc1nc(-c2cccs2)no1)Nc1ccccc1[N+](=O)[O-]", "survival": "inactive: 74%"},
      {"smiles": "O=C(NC1CC(=O)N(c2cccc(F)c2)C1)c1ccc(S(=O)(=O)N2CCCC2)cc1", "note": "(centres undefined)", "survival": "inactive: 54%"},
      {"smiles": "Cc1ccn2c(=O)c(C(=O)NCCc3ccccc3)c(O)nc2c1", "survival": "inactive: 131%"},
      {"smiles": "CCOc1ccccc1CNC(=O)Cn1c(-c2ccccc2)cc(C(C)=O)c1C", "survival": "inactive: 67%"},
      {"smiles": "CC1CC(C)(C)NC(=O)O1", "note": "(centres undefined)", "survival": "inactive: 109%"},
      {"smiles": "Cc1ccc2nc(NC(=O)CSc3nccn3Cc3ccc(Cl)cc3)sc2c1", "survival": "inactive: 72%"},
      {"smiles": "Cc1cc(-c2ccccc2)n2nc(N)nc2n1", "survival": "inactive: 104%"},
      {"smiles": "CCN(CC)c1cc(C)c2cc(NC(=O)c3cccc(F)c3)ccc2n1", "survival": "inactive: 61%"},
      {"smiles": "CSc1ccc(CCNC(=O)c2cnn(-c3ccccc3)c2-n2cccc2)cc1", "survival": "active: 9%"},
      {"smiles": "O=C(Nc1cccc(Cl)c1)N1CCSc2ccccc21", "survival": "inactive: 127%"},
      {"smiles": "Cc1cccc(NC(=O)c2cc(S(=O)(=O)N3CCc4ccccc43)ccc2F)c1C", "survival": "inactive: 65%"},
      {"smiles": "CCOC(=O)c1cnc2c(ccc3ccccc32)c1Nc1ccccc1OCC", "survival": "inactive: 109%"},
      {"smiles": "COCCCNC(=O)CS(=O)Cc1nc(-c2cccc(C)c2)oc1C", "note": "(centres undefined)", "survival": "inactive: 82%"},
      {"smiles": "COc1ccc(OC)c(-c2cc(C(=O)NCCc3ccccc3)c3c(-c4ccc(C)cc4)[nH]nc3n2)c1", "survival": "inactive: 93%"},
      {"smiles": "COc1ccc(N2CCN(C(=O)C3CCCN(S(=O)(=O)c4ccc5c(c4)CCCN5C(C)=O)C3)CC2)cc1", "note": "(centres undefined)", "survival": "inactive: 115%"},
      {"smiles": "CCCn1cc(S(=O)(=O)c2ccccc2)c(=O)c2cc(F)c(N3CCCCC3)cc21", "survival": "inactive: 74%"},
      {"smiles": "Cc1ccc(N2C(=O)CSC23C(=O)N(CC(=O)NCCc2ccccc2)c2ccccc23)cc1C", "note": "(centres undefined)", "survival": "inactive: 66%"},
      {"smiles": "CCOc1ccccc1NC(=O)c1c(NC(=O)COc2ccccc2)sc2c1CCCCC2", "survival": "inactive: 144%"},
      {"smiles": "CC(NC(=O)CCCC1=NS(=O)(=O)c2ccccc2N1)c1ccccc1", "note": "(centres undefined)", "survival": "inactive: 89%"},
      {"smiles": "Cc1ccc(NC(=O)C2CCN(c3nc4ccccc4nc3C(F)(F)F)CC2)cc1F", "survival": "inactive: 64%"},
      {"smiles": "COc1ccc(C(=O)Nc2nnc(S(=O)(=O)N3CCCCCC3)s2)cc1OC", "survival": "inactive: 81%"},
      {"smiles": "CCC(C)n1c(=N)c(C(=O)NCc2ccccc2)cc2c(=O)n3cc(C)ccc3nc21", "note": "(centres undefined)", "survival": "inactive: 80%"},
      {"smiles": "CCOC(=O)c1cc(-c2ccccc2)n(-c2cccc(C(=O)Nc3cccc(F)c3)c2)c1C", "survival": "inactive: 131%"},
      {"smiles": "CCCN1C(=O)CC(C(=O)OC)=C1C", "survival": "inactive: 100%"},
      {"smiles": "O=C(O)C1C2C=CC(C2)C1C(=O)NCCO", "note": "(centres undefined)", "survival": "inactive: 103%"},
      {"smiles": "COc1ccc(C(=O)c2oc3ccccc3c2NC(=O)COc2ccccc2)cc1", "survival": "inactive: 85%"},
      {"smiles": "Cc1ccc(CNC(=O)CCc2c(C)nc3c(c(C)nn3-c3ccccc3)c2C)cc1", "survival": "inactive: 95%"},
      {"smiles": "CCc1cccc(C)c1NC(=O)CC1Oc2ccc(C)cc2NC1=O", "note": "(centres undefined)", "survival": "inactive: 132%"},
      {"smiles": "COc1ccc(CCNC(=O)c2sc3nc4n(c(=O)c3c2C)CCCC4)cc1OC", "survival": "inactive: 83%"},
      {"smiles": "O=C(COc1ccc(Cl)cc1)OCc1cc(=O)n2nc(-c3cccs3)sc2n1", "survival": "active: -6%"},
      {"smiles": "CC(C)n1c(=N)c(C(=O)NCc2cccnc2)cc2c(=O)n3ccccc3nc21", "survival": "inactive: 131%"},
      {"smiles": "COc1ccc(Cl)cc1NS(=O)(=O)c1cc(Br)cc2c1N(C(=O)C1CC1)CC2", "survival": "inactive: 77%"},
      {"smiles": "Cc1cc(C)n(CC(=O)Nc2ccc(F)c(F)c2)c(=O)c1C#N", "survival": "inactive: 73%"},
      {"smiles": "O=C(Cn1c(=O)n(Cc2ccco2)c(=O)c2ccc(C(=O)NC3CCCC3)cc21)Nc1ccc(F)cc1", "survival": "inactive: 76%"},
      {"smiles": "COc1ccc(-n2nc(C(=O)NCCc3ccc(Cl)cc3)c3c4ccccc4n(C)c3c2=O)cc1Cl", "survival": "inactive: 85%"},
      {"smiles": "Cc1cc(-c2ccc(C)c(S(=O)(=O)N3CCCC(C)C3)c2)on1", "note": "(centres undefined)", "survival": "inactive: 85%"},
      {"smiles": "O=C(Cn1nc2c(cc1=O)CCCC2)Nc1ccc(F)cc1F", "survival": "inactive: 128%"},
      {"smiles": "COc1ccc(CCNC(=O)c2c(O)nc3cc(C)ccn3c2=O)cc1OC", "survival": "inactive: 83%"},
      {"smiles": "N#C/C(=C\\c1ccc(-c2ccccc2C(=O)O)o1)c1nc2ccccc2[nH]1", "survival": "inactive: 84%"},
      {"smiles": "COc1ccc(C(=O)Nc2ccccc2C(=O)NC(C(=O)NCc2ccco2)C(C)C)cc1", "note": "(centres undefined)", "survival": "inactive: 108%"},
      {"smiles": "O=S(=O)(Nc1cccc(Cl)c1)c1ccc2[nH]c3c(c2c1)CCCCCC3", "survival": "inactive: 129%"},
      {"smiles": "CCc1ccc(CNC(=O)c2ccc(CSc3nc4ccncc4n3Cc3ccc(OC)cc3)cc2)cc1", "survival": "inactive: 75%"},
      {"smiles": "COc1ccc(N2CCN(C(=O)Cc3coc4ccc(C)cc34)CC2)cc1", "survival": "inactive: 107%"},
      {"smiles": "CCN(CC)C(=O)C1=C(C)Nc2nc3ccccc3n2C1c1ccc(Br)cc1", "note": "(centres undefined)", "survival": "inactive: 80%"},
      {"smiles": "CCc1noc(-c2ccc(NC(C)c3ccccc3)c([N+](=O)[O-])c2)n1", "note": "(centres undefined)", "survival": "inactive: 85%"},
      {"smiles": "CC(=O)c1cccc(NC(=O)CCS(=O)(=O)c2cc3c(cc2C)NC(=O)CO3)c1", "survival": "inactive: 87%"},
      {"smiles": "CCOC(=O)c1c(NC(C)=O)c2c3c(sc2n1Cc1nc(-c2ccc(Cl)cc2)oc1C)CCCC3", "survival": "inactive: 81%"},
      {"smiles": "COc1ccc(C)cc1NC(=O)C(=O)NCCc1sc(-c2ccc(Cl)cc2)nc1C", "survival": "inactive: 85%"},
      {"smiles": "CC(C)Oc1cccc(NC(=O)C2CCN(S(=O)(=O)Cc3ccccc3)CC2)c1", "survival": "inactive: 85%"},
      {"smiles": "Cc1ccccc1-c1nnc(CN2CCN(c3cc(Cl)ccc3C)CC2)o1", "survival": "inactive: 86%"},
      {"smiles": "CCOc1ccccc1C1N=C(N)Nc2nc3ccccc3n21", "note": "(centres undefined)", "survival": "inactive: 67%"},
      {"smiles": "Cc1nc(N2CCCC2)c2c(C(=O)Nc3ccc(C)c(Cl)c3)c(C)oc2n1", "survival": "inactive: 130%"},
      {"smiles": "CCOC(=O)c1c(S(=O)(=O)N2CCC(C(=O)N3CCN(c4cccc(C)c4C)CC3)CC2)c(C)n(C)c1C", "survival": "inactive: 72%"},
      {"smiles": "CCn1cnc2c(cnn2-c2ccccc2)c1=O", "survival": "inactive: 97%"},
      {"smiles": "CCC(CC)C(=O)Nc1cc(-c2cn3cccnc3n2)ccc1OC", "survival": "inactive: 117%"},
      {"smiles": "CCOc1ccc(C(=O)Nc2c(C(=O)c3ccccc3)oc3ccccc23)cc1", "survival": "inactive: 60%"},
      {"smiles": "O=C(CSc1nnc(COc2ccc(Cl)cc2)o1)Nc1ccccc1", "survival": "inactive: 87%"},
      {"smiles": "COc1ccc(C(CC(=O)Nc2ccc(C)cn2)N2Cc3ccccc3C2=O)cc1OC", "note": "(centres undefined)", "survival": "inactive: 70%"},
      {"smiles": "COC(=O)c1c(C)oc2ccc(N(C(=O)c3ccncc3)S(=O)(=O)c3cc(C)c(C)cc3C)cc12", "survival": "inactive: 77%"},
      {"smiles": "CCOC(=O)N1CCC(NC(=O)c2ccc3c(c2)N(Cc2cccc(C)c2)C(=O)c2ccccc2S3(=O)=O)CC1", "survival": "inactive: 144%"},
      {"smiles": "COC(=O)c1ccc(N=NN2CCCCC2)cc1", "survival": "inactive: 115%"},
      {"smiles": "O=S(=O)(c1ccc(F)cc1)N1CCC(Oc2ccc(-n3cnnn3)cc2)CC1", "survival": "inactive: 90%"},
      {"smiles": "CCC(=O)Nc1ccc2nc(C)n(Cc3ccccc3)c(=O)c2c1", "survival": "inactive: 123%"},
      {"smiles": "COc1cccc(CNC(=O)c2nnn(CC(=O)Nc3cc(Cl)ccc3C)c2N)c1", "survival": "inactive: 19%"},
      {"smiles": "Cc1ccc(-c2ccc(=O)n(Cc3ccc(F)cc3)n2)cc1", "survival": "inactive: 80%"},
      {"smiles": "COc1cccc(CNC(=O)Cn2c(=O)oc3cc(S(=O)(=O)N4CCCC4)ccc32)c1", "survival": "inactive: 119%"},
      {"smiles": "CCC(=O)N1CCc2cc(Br)cc(S(=O)(=O)CCC(=O)Nc3cccc(CC)c3)c21", "survival": "inactive: 104%"},
      {"smiles": "Cc1cccc(N2C(=O)C(CC(=O)Nc3cccc(F)c3)N(Cc3cccs3)C2=O)c1", "note": "(centres undefined)", "survival": "active: 0%"},
      {"smiles": "Cc1ccc(Nc2cc(C)nc3nc(Cc4ccc(Cl)cc4)nn23)cc1", "survival": "inactive: 78%"},
      {"smiles": "CCOc1ccc(CCNC(=O)CCCc2cc(-c3ccc(OCC)cc3)on2)cc1", "survival": "inactive: 83%"}
    ]}
  ]
}
